Reference: ChEMBL document CHEMBL4888484, “Replenishing the malaria drug discovery pipeline: Screening and hit evaluation of the MMV Hit Generation Library 1 (HGL1) against asexual blood stage Plasmodium falciparum ,using a nano luciferase reporter read-out” (2022)
The whole screen tested about 150,000 compounds, of which about 540 (0.36%) showed an effect of 50% or more. The list shows a part of the results.

These molecules were tested on Plasmodium falciparum (assay: Primary screen in NF54 nanoGlo assay, in single point, at 2uM, 72h; a lower Z score goes with more inhibition). Conditions: timepoint 72 hour.
Format: functional, Erythrocyte

| SMILES | % Inhibition | Z score |
| --- | --- | --- |
| O=C1[C@@H]2Cc3c([nH]c4ccccc34)CN2C(=O)N1C1CCCCC1 | 32% | -3.57 |
| O=C(Nc1cccc2c1CCCC2)c1cccc(S(=O)(=O)N2CCCCC2)c1 | -16% | 1.73 |
| CCC(C)(C)NC(=O)Nc1ccccc1 | -16% | 3.29 |
| O=C(c1cc(N2Cc3ccccc3C2)ccn1)N1CCOCC1 | -11% | 2.12 |
| CN1CCC[C@H](Nc2ncc(C(C)(C)C(=O)O)c(N3CCOCC3)n2)C1 | -1% | 0.09 |
| Cc1ccncc1Nc1nccn(C)c1=O | -7% | 0.83 |
| COc1cnc([C@@H]2CCCN2C(=O)C2CCC(C)(C)CC2)[nH]c1=O | -13% | 2.04 |
| O=S(=O)(CCC1CCCO1)NCC1CC12CCc1ccccc12 (configuration not stated) | 0% | -0.01 |
| O=C(NC1CC2CCC1O2)N1C2C=C(c3ccccc3)CC1CC2 (configuration not stated) | -9% | 0.82 |
| CCC(C)C(C)(O)CNC(=O)Cc1csc(-c2ccc(C)o2)n1 (configuration not stated) | -6% | 0.66 |
| COCCN1C[C@]2(CCCN(c3cc(NC4CC4)nc(N)n3)C2)CCC1=O | -5% | 0.86 |
| NC(=NCc1cccc(COCC(F)(F)F)c1)N1CCOCC1 | 30% | -3.42 |
| Cc1c(NC(=O)[C@H]2CCCO2)c(N2CCCC2)nn1C | -14% | 2.62 |
| O=S(=O)(c1ccc2nc(NCc3cccs3)cnc2c1)N1CCCCC1 | -13% | 1.44 |
| Cc1nc(N(Cc2ccccn2)C[C@@H]2CCC(=O)N2)c2ccsc2n1 | -15% | 2.12 |
| Cc1ccc(Cl)cc1-n1nnc(C(=O)Nc2ccc3c(c2)OCCO3)c1C | -18% | 1.96 |
| CCOc1ccc2nc(NC(=O)Nc3cn(CC(C)C)c(=O)c4ccccc34)sc2c1 | 3% | -0.44 |
| CC(C)[C@H](C)N(C(=O)NCc1ccncc1)C1CC1 | -12% | 1.19 |
| O=C(Cc1cccs1)NCc1ccsc1 | 3% | -0.35 |
| COCCn1cc(NC(=O)N(C)c2c(C)noc2C)cn1 | 10% | -1.4 |
| Cc1csc(C)c1S(=O)(=O)Nc1c2c(nn1C)CCCC2 | 7% | -0.96 |
| O=c1[nH]c2ccc(-c3csc(N4CCCCC4)n3)cc2[nH]1 | 33% | -3.69 |

| SMILES | % Inhibition | Z score |
| --- | --- | --- |
| Cc1cc(N2CCC[C@H](CNC(=O)CN3CCOCC3)C2)nc2cc(F)ccc12 | -15% | 1.9 |
| CN1C[C@@H](NC(=O)N(CC2CCC2)CC2CC2)CC1=O | 26% | -3.69 |
| CC(C)CCN1C(=O)CC[C@@H]2CN(C(=O)c3ccn(C)c(=O)c3)CC[C@@H]21 | -2% | 0.29 |
| CN(C)C1CCC2C(C1)OCCN2c1ncc(Br)cn1 (configuration not stated) | -11% | 2 |
| N[C@H]1C[C@@H](c2nc(-c3ccn(-c4ccccc4)n3)no2)[C@@H]2C[C@@H]21 | 2% | -0.32 |
| O=C([C@@H]1CCOc2ccc(Cl)cc21)N1Cc2cccc(Cl)c2C1 | -15% | 1.28 |
| Cc1cc(S(=O)(=O)N2CCNC(=O)C[C@H]2c2ccccc2)c(C)o1 | -3% | 0.46 |
| Cc1nc(C(=O)NCc2nc(N(C)C)no2)no1 | 7% | -0.6 |
| Cc1ccc(NC(=O)Cn2cnc3c(-c4ccncc4)nsc3c2=O)c(C)c1 | -3% | 0.56 |
| O=C(O)c1noc(Cc2ccc(Cl)cc2)n1 | 4% | -0.42 |
| Cc1cnn(CC(=O)N2CCOc3c(O)cc(-c4cccnc4)cc3C2)c1 | -18% | 2.06 |
| O=C(NC1CCN(Cn2nc3ccccn3c2=O)CC1)C1CCC1 | 3% | -0.34 |
| O=C(N[C@H]1CC[C@@H](CO)C1)c1ccc(C(F)(F)F)cc1Cl | -3% | 0.61 |
| O=C(COc1ccc2c(c1)OCO2)Nc1cccc(S(=O)(=O)N2CCCC2)c1 | -11% | 1.55 |
| COc1ncccc1C(=O)NCC(F)(F)F | -29% | 3.28 |
| CCCc1cnc(N2C[C@H]3CC[C@@H](C2)[C@@H]3N)nc1 | -10% | 1.92 |
| CCCN(CC(=O)O)c1nnc(-c2ccccc2)s1 | 1% | -0.12 |
| CCOc1cccc(CN2CCC3(CCC(=O)N(Cc4cccnc4)C3)CC2)c1 | -9% | 1.07 |
| CC1(C)C[C@@H]2C[C@@](C)(CN2Cc2cc3n(n2)CCCNC3)C1 | -3% | 0.52 |
| CN1CCC(CNC(=O)C(C)(C)Oc2ccc3c(c2)CCC3)CC1 | -10% | 1.69 |
| Cc1nc2ccccc2n1CCc1nnn[nH]1 | -1% | 0.2 |
| COc1ccccc1OC(=O)Cn1c(=O)sc2cccc(Cl)c21 | 1% | -0.15 |

| SMILES | % Inhibition | Z score |
| --- | --- | --- |
| CC(C)c1cc(=O)[nH]c(-n2nc(C3CC3)cc2NC(=O)COc2ccc3ccccc3c2)n1 | 54% | -12.73 |
| CN1CCCN(CC(=O)N[C@](C)(C#N)C2CC2)c2cc(F)ccc21 | -11% | 1.19 |
| CC(=O)N[C@H]1CN(Cc2nc(C(F)(F)F)no2)C[C@@H]1c1ccc(C)cc1 | 19% | -2.51 |
| Cc1ccc(-c2nc3n(CC(=O)NCc4ccccc4)c(C)c(Cc4ccccc4)c(=O)n3n2)cc1 | 7% | -0.86 |
| CC(C)C(=O)N(CCCN1CCCC1)[C@H]1CCCN(C(=O)C2CCC2)C1 | 0% | 0.05 |
| CCn1ccnc1[C@H]1CCCN(c2cnc3ccccc3n2)C1 | -12% | 2.04 |
| C=CCN(Cc1ccc(OC)nc1)Cc1ccco1 | -10% | 1.98 |
| COc1ccc(N2C(=O)[C@H](CC(=O)N3CCN(CCn4c(C)ccc4C)CC3)N=C2O)cc1 | 32% | -3.58 |
| O=C(CCc1nnc[nH]1)N(Cc1ccc2c(c1)CCO2)C1CCCC1 | -4% | 0.7 |
| O=C(O)C[C@H]1CCCN(C(=O)CCCc2cc(F)ccc2F)C1 | 8% | -0.99 |
| CC(=O)Nc1cccc(C(=O)N2CCN(c3cc(C)n4c(C)nnc4n3)CC2)c1 | -11% | 1.39 |
| CCC(CC)[C@H]1CCN(C(=O)c2cc(C(=O)O)co2)C1 | -10% | 1.2 |
| O=C(NC1CC1)[C@@H]1Cc2ccccc2O1 | -13% | 2.28 |
| CCCN1C[C@@H](NS(=O)(=O)c2c(C)cc(C)c3nonc23)CC1=O | -5% | 0.74 |
| CCN(Cc1ccc2[nH]ccc2c1)S(=O)(=O)CC1CCC1 | -4% | 0.38 |
| Cc1ccccc1N(C(=O)COC[C@H]1CCCO1)C(C)C | -11% | 1.52 |
| Cc1cc(C(F)(F)F)ccc1CN1CCC2(CC1)NC(=O)[C@H](C)O2 | 4% | -0.59 |
| Cc1cccc(S(=O)(=O)N2CCCC[C@H]2c2nnc(C3CCC3)o2)c1 | -15% | 2.1 |
| O=C(NCC1CCOCC1)c1cccs1 | -3% | 0.6 |
| CS(=O)(=O)NCCNC(=O)C1CC=CCC1c1nc2ccccc2s1 (configuration not stated) | 1% | -0.22 |
| Cc1nn(C)c2nc(N(C)Cc3cc(C(C)C)no3)sc12 | 3% | -0.61 |
| Cn1nc2c(c1S(=O)(=O)N1CC(N3CCOCC3)C1)CCCC2 | 3% | -0.62 |

| SMILES | % Inhibition | Z score |
| --- | --- | --- |
| O=C(NCc1nnc2ccccn12)c1cc2c(Cl)cccc2s1 | -18% | 2.48 |
| CCCN(CC(=O)Nc1ccc(Cl)cc1)C(=O)Cn1cncn1 | -11% | 1.54 |
| Cc1cnc(N[C@H]2CCC[C@@H]2N(C)C)nc1N(C)C | -6% | 0.74 |
| COc1cccc(CC(=O)Nc2nnc([C@H]3CC(=O)N(c4ccc(F)cc4)C3)o2)c1 | 2% | -0.29 |
| O=S(=O)(Cc1cnoc1C1CC1)C1CCCC1 | 29% | -3.26 |
| CS(=O)(=O)N1CCC(n2c(=O)[nH]c3ccc(F)cc3c2=O)CC1 | 8% | -1.09 |
| O=C(CCc1cc2n(n1)CCN(Cc1ccc3ccccc3n1)C2)NCCO | -16% | 2.81 |
| COc1cc(F)ccc1N(C)Cc1nnc(-c2ccco2)o1 | -16% | 3.06 |
| O=C(COCC(=O)Nc1ccncc1)Nc1ccncc1 | -8% | 1.24 |
| Cc1noc(C)c1CNC(=O)c1ccoc1 | 1% | -0.11 |
| COc1ccc([C@H]2CC(=O)Nc3ccsc32)cc1OC(C)C | 7% | -0.84 |
| COc1ccc(CNc2ccc(N3CCOCC3)nc2)cc1OC | -1% | 0.19 |
| CC(=O)Nc1ccc(OCCO)c(OCCO)c1 | 5% | -0.71 |
| COc1ccc(NC(=O)c2nccnc2-c2nc3ccccc3s2)cc1Cl | -12% | 1.36 |
| CC(C)c1ccc(-c2nn3c(C4CCN(S(C)(=O)=O)CC4)nnc3s2)cc1 | 33% | -4.27 |
| CCN1C(=O)C[C@H](C(=O)N(C)Cc2ccccn2)[C@H]1c1nccn1CC | -7% | 0.97 |
| Cc1nn(C)c(C)c1CC(=O)N1CCc2sccc2C1 | -38% | 4.51 |
| Cc1nn(-c2nc3ccccc3o2)c2c1[C@@H](c1cccc(Cl)c1Cl)CC(=O)N2 | 11% | -1.36 |
| Cc1c(F)cccc1-c1ccc(CNc2cccc(CN3CCC(O)CC3)c2)o1 | 8% | -0.88 |
| C#CC1CCN(C(=O)CN2C(=O)COc3ccccc32)CC1 | -13% | 2.02 |
